PubChem BioAssay AID463173 (ICCB-Longwood Screening Facility, Harvard Medical School, 2010)
Among all 52,000 compounds or so, about 4,300 (8.3%) were called active. Cut-off read from the data, not from the text of the source: active = survival mostly below about 52% (no sharp cut-off); inactive = mostly above about 56%. This is one part of the list.

system: DeltatarO mutant; experiment: S. aureus survival, RN4220 and DeltatarO strains – OD600, teichoic acid synthesis inhibitors, primary screen (AID 463173); conditions: S. aureus RN4220 wild type/DeltatarO growth, OD600, 18 h, stronger effect = lower value, screened at 18.75 µg/mL (by protocol)

Structure (SMILES) | survival
COCCN1Cc2cccc(C(=O)Nc3ccc(Cl)cc3Cl)c2C1=O | inactive: 59%
CCN(CC)c1ccc(NC(=O)CN2C(=O)c3cccnc3Sc3ccccc32)c(C)c1 | active: -2%
CC(=O)N(c1nnc(-c2ccc(C)cc2)s1)C1CCCC1 | inactive: 98%
CC(=O)N1CCc2c(sc3c2c(=O)n(CCc2ccccc2)c(=O)n3Cc2cccc(C)c2)C1 | inactive: 98%
CC(=O)N1c2ccc(S(=O)(=O)N3CCN(c4cccc(Cl)c4)CC3)cc2CC1C (stereo not drawn) | inactive: 115%
CC(C)NC(=O)Cn1nc(N2CCN(c3ccccc3)CC2)ccc1=O | inactive: 84%
COc1ccc2oc(-c3ccc(C)c(NC(=O)CSc4ccc(Cl)cc4)c3)nc2c1 | active: 51%
Cc1ccc(Cn2cc(S(=O)(=O)c3ccc(C)cc3)c(=O)c3cc(F)c(N4CCCC4)cc32)cc1 | inactive: 90%
Cc1ccc(CNC(=O)C2CCN(C(=O)c3cnn(-c4ccccc4)c3-n3cccc3)CC2)cc1 | inactive: 74%
CCOc1cccc(NC(=O)c2ccc(F)c(S(=O)(=O)N(CC)c3cccc(C)c3)c2)c1 | inactive: 86%
Cc1c(Cl)cccc1NC(=O)CSc1nc(=O)n(Cc2cccnc2)c2c1CCC2 | inactive: 100%
Cc1c(Cl)cccc1-n1ncc(C(=O)Nc2ccc(F)cc2F)c1C1CCN(C(=O)OC(C)(C)C)CC1 | inactive: 81%
Cc1cc(Cl)ccc1NS(=O)(=O)c1ccc2c(c1)CC(C)N2C(=O)C1CCC1 (stereo not drawn) | inactive: 81%
O=C1CC(c2nc(-c3ccccc3)no2)CN1c1ccc2c(c1)OCCO2 (stereo not drawn) | inactive: 93%
CCOc1ccc(S(=O)(=O)Nc2ccc(-c3ccc(OC)nn3)cc2)cc1 | inactive: 82%
CCC(Sc1nc2nccnc2c(=O)n1Cc1ccc(C)cc1)C(=O)NC1CCCCC1 (stereo not drawn) | active: 39%
CC1(C)CC2CC(C)(CN2C(=O)c2cccs2)C1 (stereo not drawn) | inactive: 78%
CCc1nn2c(=O)c(S(=O)(=O)Nc3cccc(F)c3)c(C)nc2s1 | inactive: 70%
CCCNC(=O)N1CCN(S(=O)(=O)c2ccc3c(ccn3C)c2)CC1 | inactive: 83%
COc1cc2c(c(OC)c1)C(c1cc(OC)c(OC)c(OC)c1)CC(=O)N2 (stereo not drawn) | inactive: 78%
Cc1c2cnn(-c3ccccc3)c(=O)c2c(C)n1CC(=O)NCc1ccccc1 | inactive: 93%
Cc1ccc(Cl)cc1NS(=O)(=O)c1cc2c3c(c1)CC(=O)N3CCC2 | inactive: 92%

Structure (SMILES) | survival
Cc1cccc(-n2c(SCC(=O)c3ccccc3)nnc2-c2ccc(Br)cc2)c1 | inactive: 78%
Cc1ccc(CNC(=O)Cn2c(=O)n(-c3cccc(Cl)c3)c(=O)c3sc4ccccc4c32)cc1 | inactive: 88%
CCOC(=O)C1CCCN(S(=O)(=O)c2csc(C(N)=O)c2)C1 (stereo not drawn) | inactive: 74%
COc1ccccc1N1CCN(C(=O)c2cc3ccc4ccc(C)[nH]c4c3n2)CC1 | inactive: 74%
CCOc1ccc(-c2cc3nc(C4CCN(C(=O)OC(C)(C)C)CC4)c(C(=O)Nc4ccc(C)cc4C)cn3n2)cc1 | inactive: 63%
O=C(CC1SC(=NC2CCCCC2)NC1=O)Nc1ccccc1 (stereo not drawn) | inactive: 89%
CCC(C)NC(=O)c1nc2c(nnn2Cc2ccccc2Cl)c(=O)[nH]1 (stereo not drawn) | inactive: 85%
O=C(CN(C(=O)Cn1nnc(-c2cccs2)n1)C1CCCC1)NCc1ccccc1 | inactive: 90%
CC(=O)Nc1ccccc1N1CCCCC1 | inactive: 100%
Cc1cccc(C(=O)NCC(=O)OCc2cc(=O)n3nc(C4CC4)sc3n2)c1 | inactive: 69%
CCOC(=O)Cn1c(=O)n(C2CCCCC2)c2nc(-c3cccc(OC)c3)nc(C(N)=O)c21 | inactive: 91%
Cc1cc(C)cc(NC(=O)CCc2c(C)nc3c4cccnc4nn3c2C)c1 | inactive: 99%
COc1ccc(CCNC(=O)c2ccc(CNS(=O)(=O)c3ccccc3)cc2)cc1OC | inactive: 119%
COc1cc(NC(=O)c2ccc(NC(=O)N3CCSc4ncccc43)cc2)cc(OC)c1 | inactive: 84%
CCOc1cccc2sc(N(CCN(CC)CC)C(=O)c3ccco3)nc12 | inactive: 118%
CC(C)(C)OC(=O)N1CCC(c2c(C(=O)N3CCN(C(=O)c4ccco4)CC3)cnn2-c2ccccc2)CC1 | inactive: 67%
Cc1cccc(CCNC(=O)C2CCCN(S(=O)(=O)c3ccc4c(c3)oc(=O)n4C)C2)c1 (stereo not drawn) | inactive: 102%
O=C(CSc1cn(CC(=O)N2CCCC2)c2ccccc12)Nc1cc(C(F)(F)F)ccc1Cl | inactive: 52%
CCC1CN(C(=O)Nc2ccc(C(=O)O)cc2)c2cc(Cl)ccc2O1 (stereo not drawn) | inactive: 82%
CC(CNC(=O)CCCn1c(=O)c2cccn2c2cccnc21)c1ccccc1 (stereo not drawn) | inactive: 95%
O=C(c1ccc(CS(=O)c2ccccc2Cl)o1)N1CCN(c2cccc(Cl)c2)CC1 (stereo not drawn) | active: 51%
COc1cccc(CNC(=O)c2ccc(NC(=O)N3CC(C)Sc4ccccc43)cc2)c1 (stereo not drawn) | inactive: 62%

Structure (SMILES) | survival
Cc1ccccc1Nc1c(-c2ccncc2)nc2ccc(Cl)cn12 | inactive: 118%
CCOc1ccc(NC(=O)CCS(=O)(=O)c2ccc(Br)cc2)cc1 | inactive: 83%
COc1ccc(/C=C(/C#N)c2nc(-c3ccc(Br)cc3)cs2)cc1 | inactive: 62%
CCOC(=O)c1ccc(N2C(=O)c3n[nH]c(-c4cccs4)c3C2c2ccc(Cl)cc2Cl)cc1 (stereo not drawn) | inactive: 61%
Cc1cc(Br)ccc1NC(=O)C1CCN(S(=O)(=O)c2ccc(Br)s2)CC1 | inactive: 78%
CCC(=O)N1CCc2cc(S(=O)(=O)CCC(=O)NCc3cccc(OC)c3)ccc21 | inactive: 117%
COc1ccc(NC(=O)c2c(C)oc3ccc(O)c(CN4CCN(Cc5ccccc5)CC4)c23)cc1 | inactive: 56%
COc1cc(NC(=O)c2c(C)oc3ncnc(N4CCCCC4)c23)cc(OC)c1 | inactive: 128%
Cc1ccc2c(c1)c(=O)c1ccccc1n2CCCC(=O)Nc1c(F)cccc1F | inactive: 53%
CN(Cc1ccccc1)C(=O)c1cn(C)c2ccc(S(=O)(=O)N(C)C3CCCCC3)cc2c1=O | inactive: 88%
CCCS(=O)(=O)c1nc(S(=O)(=O)c2ccc(C)cc2)c(NCc2ccccc2)s1 | inactive: 102%
O=C(NCC(c1ccccc1)c1ccccc1)c1nn(-c2ccccc2F)nc1CO | inactive: 104%
Cc1ccc(CCNC(=O)CCSCc2ccccc2Cl)cc1 | active: 20%
Cc1ccc2c(c1)-c1c(cnn1CC(=O)Nc1ccccc1C#N)CO2 | inactive: 111%
CC(=O)N1CCCc2cc(S(=O)(=O)N3CCCC(C(=O)N4CCN(c5cc(C)ccc5C)CC4)C3)ccc21 (stereo not drawn) | inactive: 79%
Cc1ccc(OC(=O)CSc2nnc(CNC(=O)c3ccccc3)o2)cc1 | inactive: 81%
CCc1ccc(C2=NN(CCC(=O)NCCc3ccc(Cl)cc3)C(=O)CC2)cc1 | inactive: 128%
Cc1ccc(C(=O)COC(=O)CCC(=O)Nc2ccc(Oc3cc(C)ccc3C(C)C)cc2)cc1 | inactive: 62%
C(=N\c1nncs1)/Nc1nncs1 | inactive: 85%
Cc1ccc2nc(C3CCCN(C(=O)NCc4ccccc4)C3)[nH]c2c1 (stereo not drawn) | inactive: 74%
O=C1c2ccccc2S(=O)(=O)c2cc(-c3nn[nH]n3)ccc21 | inactive: 77%
Cc1ccc(NC(=O)c2c(C)oc3ccc(O)c(CN4CCCCC4)c23)c(C)c1 | inactive: 58%

Structure (SMILES) | survival
CC(=O)NC1N=C(C)N(c2ccccc2)C1=O (stereo not drawn) | inactive: 87%
Cc1ccc(-c2nnc(Nc3ccc(S(N)(=O)=O)cc3)c3ccccc23)cc1S(=O)(=O)N1CCCCC1 | inactive: 103%
COCCNC(=O)CSc1nc(-c2ccccc2C)nc2c1c(=O)n(C)c(=O)n2C | inactive: 80%
COc1ccc(CCC(=O)NCCc2csc(-c3ccc(Cl)cc3)n2)cc1 | inactive: 113%
NS(=O)(=O)c1ccc2nc(NC(=O)COc3ccccc3)sc2c1 | inactive: 81%
CN(Cc1ccco1)S(=O)(=O)c1nnc(NC(=O)c2cccc(Cl)c2)s1 | active: 5%
Cc1ccc(NC(=O)c2nc(S(C)(=O)=O)ncc2N(Cc2ccco2)Cc2ccco2)cc1C | inactive: 50%
CC(C)C(NS(=O)(=O)c1ccc2c(c1)oc(=O)n2C)C(=O)NCCc1ccc(Cl)cc1 (stereo not drawn) | inactive: 86%
CCOc1ccc(Nc2c(S(=O)(=O)c3ccccc3)cnc3ccccc23)cc1 | active: 38%
Cc1ccc2cccc(NC(=O)c3ccc(-c4cccc(Cl)c4)o3)c2n1 | active: 49%
COc1ccc(Cl)cc1NC(=O)NCC1CCN(Cc2ccccc2F)CC1 | inactive: 95%
CCOc1ccc(OCC)c(NS(=O)(=O)c2cc(-c3onc(C)c3C)ccc2OC)c1 | inactive: 83%
CN1C(=O)C2(SCC(=O)N2c2ccc(F)cc2)c2ccccc21 (stereo not drawn) | inactive: 83%
CC1=NN(C(=O)c2ccccc2)C(C)(O)C1(C)C (stereo not drawn) | inactive: 98%
CCOCCCNC(=O)C(c1ccc(Cl)cc1)N(Cc1cccs1)C(=O)c1ccc(NC(C)=O)cc1 (stereo not drawn) | inactive: 73%
Cc1ccc(NC(=O)CN2C(=O)C3(SCC(=O)N3c3ccc(F)c(F)c3)c3ccccc32)c(C)c1 (stereo not drawn) | inactive: 88%
CCC(=O)N1CCc2cc(Br)cc(S(=O)(=O)CCC(=O)N(CC)Cc3ccccc3)c21 | inactive: 80%
CN1/C(=N\O)c2cccc3cccc1c23 | inactive: 97%
CC(C)(Oc1ccc(Cl)cc1)C(=O)Nc1nc2ccc(S(C)(=O)=O)cc2s1 | inactive: 69%
CN(C)c1ccc(C(CNC(=O)c2c(F)cccc2Cl)N2CCOCC2)cc1 (stereo not drawn) | active: 25%
CCN(C(=O)C1CCN(c2ncnc3c2nc2n3CCCCC2)CC1)c1cccc(Cl)c1 | inactive: 79%
O=C(NCC(c1ccc2c(c1)OCO2)N1CCOCC1)c1c(F)cccc1F (stereo not drawn) | inactive: 69%
